Reference: PubChem BioAssay AID485281 (National Center for Advancing Translational Sciences (NCATS), 2010)
About 260 (0.074%) of roughly 350,000 compounds were called active. This list was built around the results that the source calls inconclusive (neither active nor inactive); the mix of calls is not that of the screen. Calls follow the shape of the dose curve; as a rule, active = well fitted inhibition curve with a large enough effect; inconclusive = small, poorly fitted or top-dose-only effect; inactive = no such curve, though single readings can be large or run the other way. Where the call is inconclusive, the potency comes from a doubtful curve fit.

Each compound was assayed against Ferritin light chain (Equus caballus) (UniProt P02791) (assay: qHTS Assay for Identification of Novel General Anesthetics). Conditions: apoferritin/1-aminoanthracene competitive binding, fluorescence; series mostly up to 77.5 µM.
Outline: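 Steps: apoferritin (10 uM) was premixed with half-saturated 1-AMA in PBS, compounds were pin-transferred, plates stood 10 min at room temperature, fluorescence was read at 380/535 nm, and curves were fitted with a Hill equation.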
Also: nearly all actives have a fitted effect of over 20% in size.
Tags tell the direction and shape of the fitted curve.

UniProt P02791, sequence (P02791 whole entry, looked up): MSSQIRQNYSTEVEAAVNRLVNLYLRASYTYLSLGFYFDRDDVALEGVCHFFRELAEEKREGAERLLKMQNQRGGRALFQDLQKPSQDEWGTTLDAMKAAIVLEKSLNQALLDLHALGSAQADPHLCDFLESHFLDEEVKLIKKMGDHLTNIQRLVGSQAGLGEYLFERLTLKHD

Row | Structure (SMILES) | Potency
1 | Cc1cc(NC(=O)CCC(=O)N(c2ccccc2)C2(C(=O)NC3CCCCC3)CCCC2)no1 | inconclusive: 31.6 µM [inhibitor, partial curve]
2 | CCOC(=O)c1cc(C#N)c(N2CCN(C(=O)c3cccc(C(F)(F)F)c3)CC2)nc1C(F)(F)F | inconclusive: 3.98 µM [inhibitor, partial curve]
3 | Cc1ccc(C(c2ccccc2)c2c(C)[nH]c3ccccc23)s1 (stereo not drawn) | inconclusive: 6.31 µM [inhibitor, single point]
4 | CCCCNC(=O)CSc1nc(COc2ccccc2)nc2ccccc12 | inconclusive: 56.2 µM [inhibitor, single point]
5 | COc1ccc(N/C(C)=C/C(=O)c2ccccc2)cc1 | inactive
6 | Cc1cc(C)c(NC(=O)CN2C(=O)c3cccnc3Oc3ccc(C)cc32)c(C)c1 | inconclusive: 31.6 µM [inhibitor, single point]
7 | Cc1cccc(CNc2ccc(C(CC(N)=O)NC(=O)Cc3cccc4ccccc34)cc2[N+](=O)[O-])c1 (stereo not drawn) | inactive
8 | CCOC(=O)Cc1csc(NC(=O)c2ccc(S(=O)(=O)N3CCCC3)cc2)n1 | inconclusive: 28.2 µM [inhibitor, partial curve]
9 | Cc1nc(-c2ccc(S(=O)(=O)N3CCCCCC3)cc2)cs1 | inconclusive: 22.4 µM [inhibitor, partial curve]
10 | Cc1cc(C)c(Cn2c3ccccc3c3cnn(CC(=O)NCc4ccccn4)c(=O)c32)c(C)c1 | inconclusive: 10 µM [inhibitor, partial curve]
11 | CC(C)(C)c1ccc(C2(C)NC(=O)N(CC(=O)c3ccc[nH]3)C2=O)cc1 (stereo not drawn) | inconclusive: 22.4 µM [inhibitor, partial curve]
12 | O=C(CCS(=O)(=O)c1ccc(Br)cc1)Nc1ccc(Cl)c(C(F)(F)F)c1 | inactive
13 | CN(C)c1ccc(C(=O)OCC(=O)N2CCCCCC2)cc1 | inconclusive: 35.5 µM [inhibitor, single point]
14 | CC(=O)N1CCN=C1SCc1ccc(C(F)(F)F)cc1 | inconclusive: 17.8 µM [inhibitor, partial curve]
15 | CCN1CCN(C2=C(Cl)C(=O)N(Cc3ccccc3)C2=O)CC1 | inactive
16 | COCCCNC(=O)CNC(=O)c1nn(-c2ccc(OC)c(Cl)c2)c(=O)c2ccccc12 | inactive
17 | CCOc1cccc2sc(N(CCCN(C)C)C(=O)c3ccc(S(=O)(=O)N4CCCCCC4)cc3)nc12 | inconclusive: 22.4 µM [inhibitor, partial curve]
18 | COC(=O)c1ccc2c(c1)N(CC(=O)Nc1cccc(Cl)c1C)C(=O)c1ccccc1S2 | inactive
